The source of these data is PMC6212790.

Some of the results follow. At the low end of the ranking the order means little.

The experiment addresses T1, GST-Rok-C97-191 (UniProt O34857).
T1 sequence: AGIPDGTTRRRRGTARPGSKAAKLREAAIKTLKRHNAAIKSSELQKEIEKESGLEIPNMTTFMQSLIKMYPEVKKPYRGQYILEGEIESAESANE
Kind of experiment: protein binding microarray.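 Further: rank score from −0.5 (least bound) to 0.5 (best bound).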 The conditions noted are these: Rok is a gene silencer of Bacillus subtilis; high values mean tight binding; most listed sequences are background and not binding sites; double strand, one strand shown.
ACCTCACC had a binding signal of -0.0594 E-score.

AGCCTAGC yielded a binding signal of -0.183 E-score. For ATGGAAAC the value was 0.0822 E-score; for GCGAGTAA, 0.157 E-score; for CGTCAGAA, -0.19 E-score. The same measure for GGGTCATA: 0.0189 E-score; for CTTATAAA: 0.0788 E-score. The same measure for AGGAACCG: -0.152 E-score; for ACGGCTCG: -0.153 E-score. GGGGCACC registered a binding signal of -0.375 E-score. The same measure for CCGCAAAG: -0.219 E-score. GCTAGGGA displayed a binding signal of -0.142 E-score. As for AGGGCAAA, the binding signal worked out at 0.0239 E-score. Sequence CAGACTAC gave a binding signal of 0.131 E-score.

For the sequence AATAGACG, the binding signal is -0.21 E-score. GCGGGTGA gave a binding signal of -0.192 E-score.

In the case of CGACCGCA, the binding signal is -0.158 E-score. The sequence CTACTAAA came in with a binding signal of 0.379 E-score. AGTCCCTA gave a binding signal of -0.0161 E-score.

CGTCCATC displayed a binding signal of -0.254 E-score. In the case of CCCGTACC, the binding signal was -0.179 E-score. Sequence AATAGGTG yielded a binding signal of 0.162 E-score.

Take ATCCCCTG: the binding signal was found to be 0.132 E-score. Take GTTGGATA: the binding signal stood at 0.112 E-score. GAGACCCC yielded a binding signal of -0.313 E-score. CAGAATGC: the binding signal is -0.188 E-score.

The sequence ATACTGTA gave a binding signal of 0.334 E-score. TAGCCGGA returned a binding signal of 0.0621 E-score. Regarding GCTTTGCC, the binding signal was -0.232 E-score.

In turn, CACACCAG registered a binding signal of -0.0205 E-score.

In turn, GTCTTTCA gave a binding signal of -0.0106 E-score. The sequence GCCGAGAC came in with a binding signal of -0.0846 E-score. On to AACACAAC, for which the binding signal is -0.0365 E-score. GTAAGTAC registered a binding signal of 0.281 E-score. As to ATTGGACA, the binding signal is 0.0233 E-score. The sequence AAGGATGA came in with a binding signal of -0.0751 E-score. The same measure for AAATACGG: 0.213 E-score; for CTATCTCC: 0.0551 E-score; for CTGGTTAA: 0.0435 E-score. For the sequence AGTACCCA, the binding signal amounted to 0.0119 E-score.

The sequence AATTGGTC showed a binding signal of -0.0353 E-score. Regarding AACCTGGT, the binding signal is -0.161 E-score. ATCTCAAC registered a binding signal of 0.0312 E-score. AACACACC yielded a binding signal of 0.0125 E-score. The sequence GATGGTAC returned a binding signal of -0.094 E-score.

In turn, CTAGTAAC showed a binding signal of 0.27 E-score. Take CCTACGCA: the binding signal was -0.0433 E-score. AGCGCCGA came in with a binding signal of -0.217 E-score. For GAGTTCAA, the binding signal worked out at 0.00845 E-score. The sequence CGCAGGCC displayed a binding signal of -0.412 E-score.

Turning to CAGAGCCA, the binding signal was -0.292 E-score. ATCGACGG showed a binding signal of -0.143 E-score. For TAAGTTGA the value was 0.114 E-score; for CCGCCATC, -0.27 E-score; for CCCTAGAG, -0.0794 E-score. For AAAACACG the value was 0.11 E-score; for CTCACGGC, -0.0132 E-score; for ATTGGATC, -0.0246 E-score. In the case of ATCGCACA, the binding signal is -0.147 E-score. Sequence ACCACAGG showed a binding signal of -0.18 E-score.

The sequence CTGGTAGC gave a binding signal of -0.00597 E-score. The sequence ACCCTTCC returned a binding signal of -0.156 E-score. Consider AGTGCTCA, for which the binding signal is -0.00672 E-score. Sequence CGTAACCC came in with a binding signal of -0.219 E-score. Consider AGATCTTA, for which the binding signal is 0.233 E-score. The same measure for CCACCTTA: -0.0737 E-score; for ATATTGAT: 0.232 E-score; for ACTTTCGC: 0.0461 E-score. For AAGACTGT, the binding signal was -0.00412 E-score. For ATATGATG the value was 0.276 E-score. CGGCGAAA had a binding signal of 0.00492 E-score. On to AGGCACAC, for which the binding signal is -0.195 E-score. In turn, GGCTGTAC returned a binding signal of -0.276 E-score. The sequence GTCTTGCA came in with a binding signal of 0.0175 E-score. CTACACTC had a binding signal of -0.0438 E-score. For GAGCCGTA the value was -0.113 E-score. Turning to GATAATCA, the binding signal was found to be 0.0131 E-score. Sequence AGAGCATG gave a binding signal of -0.201 E-score.

CGATGTTA came in with a binding signal of -0.0425 E-score. The same measure for GAGGCGAA: -0.139 E-score; for GATTGCCA: -0.11 E-score; for CCTGCACC: -0.27 E-score.

ACATTCGA showed a binding signal of 0.071 E-score. As to AGCTATAA, the binding signal stood at 0.174 E-score.

ATAAACAC displayed a binding signal of 0.18 E-score.

Take CCCGACGA: the binding signal is -0.11 E-score.

For the sequence AACTAAAA, the binding signal amounted to 0.347 E-score. The sequence ATAAATAA yielded a binding signal of 0.269 E-score. On to AGCAGCAA, for which the binding signal was -0.121 E-score. As to AGGAGTAT, the binding signal was determined as 0.174 E-score. In turn, AAGAACAA displayed a binding signal of 0.00476 E-score.

Regarding AACCGGCT, the binding signal was -0.206 E-score. For GTACACCA the value was 0.118 E-score.

CATTGAGG came in with a binding signal of -0.0938 E-score. For TCAGGCAA the value was -0.134 E-score. In turn, AAAGTCCG gave a binding signal of -0.0193 E-score. The same measure for CGACCTCC: -0.318 E-score; for ATTCTTTG: 0.0592 E-score; for CTGAACGA: -0.199 E-score. ACTGAACG: the binding signal is 0.0112 E-score. For the sequence CACAGGGC, the binding signal was -0.285 E-score. For CCCCAGGA the value was -0.239 E-score; for CGGGGTCC, -0.299 E-score; for TATGCTCA, -0.127 E-score. For ACTTTCCC the value was -0.00799 E-score; for CCGAAGAG, -0.178 E-score; for ACAGGCGT, -0.077 E-score. ACTGCGTA had a binding signal of -0.0378 E-score. Sequence CCATGTAC yielded a binding signal of 0.185 E-score.

ATACGGTC: the binding signal was -0.0487 E-score. In turn, GCAGAAAC showed a binding signal of -0.0283 E-score. TGAGACAA gave a binding signal of -0.108 E-score. The same measure for AATCATGA: 0.00714 E-score. On to CTCCGTCC, for which the binding signal was -0.242 E-score. The sequence ATGCGTTA gave a binding signal of 0.00394 E-score. GGGCAGTA: the binding signal was 0.00262 E-score. Sequence AGCGCCGC had a binding signal of -0.349 E-score.

ATAGCCTA returned a binding signal of 0.0277 E-score. As for GAATCCTA, the binding signal was -0.0148 E-score. For AACGTGCT the value was -0.0614 E-score.

With CATAACAG, the binding signal stood at 0.108 E-score. The same measure for AGGCTGGA: -0.2 E-score. The same measure for CTACTATA: 0.371 E-score; for ATGAACAC: -0.0606 E-score. For the sequence CGGACAGC, the binding signal was -0.0658 E-score. ACTCTCAC returned a binding signal of 0.104 E-score. On to CTTCGATA, for which the binding signal turned out to be 0.0594 E-score. In turn, CCCCCTGA displayed a binding signal of -0.365 E-score.

On to CTCGCACA, for which the binding signal was -0.361 E-score. For ACTCACAG, the binding signal was determined as 0.008 E-score.

The sequence TCTAACAA yielded a binding signal of 0.0392 E-score.

In turn, CTCGGAAC gave a binding signal of -0.212 E-score. For ACCTCCGA, the binding signal was -0.118 E-score. For TAGCAACA the value was 0.228 E-score; for TAACACAA, 0.0622 E-score; for CAAATCCA, -0.0871 E-score. CTAATGCC showed a binding signal of 0.136 E-score.

As to CAGCCTAC, the binding signal turned out to be 0.111 E-score. Sequence AAGTGGGA yielded a binding signal of -0.174 E-score. CCGAACCA returned a binding signal of -0.0575 E-score.

Consider TTGCCAAA, for which the binding signal is 0.142 E-score. For ACGAATCC, the binding signal was 0.043 E-score.

ACTGTTAT gave a binding signal of 0.307 E-score.

For GACTCGCA, the binding signal is -0.105 E-score. For CGCCCCCG the value was -0.235 E-score.

The sequence CGTACCAC displayed a binding signal of -0.112 E-score. For CTCTTTAC the value was 0.0967 E-score. Sequence AATGGGAA registered a binding signal of -0.015 E-score. Turning to AGTAGCAC, the binding signal stood at 0.17 E-score. In turn, ATCAGGCC yielded a binding signal of -0.159 E-score. CACGAATA returned a binding signal of 0.112 E-score.

In turn, TCACGCGA displayed a binding signal of -0.0183 E-score. For AAGCGTCT the value was -0.127 E-score; for AGCTATCA, 0.335 E-score. For GACTGACC the value was 0.0353 E-score; for CGCGAATA, -0.102 E-score; for ACAATAGA, 0.233 E-score. CTAGAGTA showed a binding signal of 0.159 E-score. As to CGCCTCTC, the binding signal is -0.278 E-score. AACGTGCA gave a binding signal of 0.206 E-score. For ACGTGATG the value was -0.0993 E-score; for ACGCTCGC, -0.139 E-score; for AGAACCAA, -0.065 E-score. In turn, ATGCGGTA displayed a binding signal of 0.139 E-score. In the case of CGGTAGAA, the binding signal came out at 0.411 E-score.

AGCATTCG came in with a binding signal of 0.0991 E-score.

On to ACAAATAT, for which the binding signal was determined as 0.337 E-score. The sequence GGGGCTAA registered a binding signal of -0.0896 E-score.

In turn, CTGGTCTC yielded a binding signal of 0.0502 E-score.

Regarding ACATACAT, the binding signal stood at 0.235 E-score. In the case of ATCTCTAC, the binding signal turned out to be 0.118 E-score. ACATCATA gave a binding signal of 0.137 E-score.
